“And” between values parts separate entries of the source, which are not always exact repeats. Identical values can stand only once. Screen size: about 420,000 compounds; about 64,000 (15%) were called active. The inconclusive results got no clear call from the source; some entries with a clear call stand among them for comparison. Calls follow the shape of the dose curve; as a rule, active = well fitted inhibition curve with a large enough effect; inconclusive = small, poorly fitted or top-dose-only effect; inactive = flat fitted curve, though single readings scatter. Potencies of inconclusive entries are left out as doubtful fits. Some compounds were tested as several samples or in several runs, with calls that do not always agree.
assay: qHTS for Inhibitors of human tyrosyl-DNA phosphodiesterase 1 (TDP1): qHTS in cells in absence of CPT; settings: DT40 Tdp1-/- hTDP1 cells, no CPT, ATP luminescence, 48 h; activity change, negative = growth inhibition: at 46.2 µM (top of the series) unless noted; also: nearly all actives have a fitted effect of over 55% in size
Procedure, shortened: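 A cellular qHTS used chicken DT40 cells lacking endogenous Tdp1 but carrying stably transfected human TDP1. Compounds were applied without camptothecin, and cell growth kinetics were judged by ATP-dependent luminescence after ≥48 hr.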
% is scaled to controls: 0 for no effect and ±100 for the full control effect; potency is read from the fitted curve at half-maximal effect; tags tell the direction and shape of the fitted curve.

Question: For `O=C(CN1N=C(c2ccc(Cl)cc2)CCC1=O)NCCN1CCc2ccccc2C1`, which Potency is on record?
Answer: inconclusive [inhibitor, partial curve, poor fit]

Question: With `O=C(NC(=S)Nc1cnc2ccccc2c1)c1ccccc1` as the molecule, how does the “activity change, negative = growth inhibition” value read?
Answer: inactive: -25.3%

Question: With `Cc1cccc(NC(=O)Cc2csc(COc3cccc(C)c3)n2)c1` as the molecule, how does the “activity change, negative = growth inhibition” value read?
Answer: inactive: -20.9%

Question: For `CCC(C)NC(=O)c1nc2c(nnn2Cc2ccccc2Cl)c(=O)[nH]1` (configuration not stated), which Potency is on record?
Answer: inconclusive [inhibitor, single point]

Question: With `Cc1ccc(CNc2ncnc3[nH]ncc23)cc1` as the molecule, how does the Potency read?
Answer: inconclusive [inhibitor, single point]

Question: With `Cc1cc(C)cc(NC(=O)CCc2c(C)nc3c4cccnc4nn3c2C)c1` as the molecule, how does the Potency read?
Answer: active: 18.4 µM

Question: With `CC[C@H](C)[C@H](NC(N)=O)C(=O)NCCc1ccc(Cl)cc1Cl` as the molecule, how does the “activity change, negative = growth inhibition” value read?
Answer: inactive: -6.54%

Question: With `COc1ccc2nc(N3C(=O)C(O)=C(C(=O)c4ccco4)C3c3ccc(OC)c(OC)c3)sc2c1` (configuration not stated) as the molecule, how does the Potency read?
Answer: inconclusive [inhibitor, single point]

Question: For `CCc1c(C(=O)Nc2nnc(C3CC3)s2)csc1C`, which “activity change, negative = growth inhibition” value is on record?
Answer: inactive: -2.9%

Question: With `COC(=O)c1cc(NC(=O)c2cccc([N+](=O)[O-])c2C)ccc1Cl` as the molecule, how does the Potency read?
Answer: active: 16.4 µM

Question: Which Potency does the source give for `O=c1c2ccccc2nc(SCc2ccc(F)cc2Cl)n1CCCN1CCOCC1` here?
Answer: active: 16.4 µM

Question: For `COc1ccc(Oc2ncc3nc(-c4ccc(OC)cc4)c(=O)n(CCC#N)c3n2)cc1`, which “activity change, negative = growth inhibition” value is on record?
Answer: inactive: -8.48%

Question: For `Cc1c(C(=O)NCc2ccccc2C(F)(F)F)sc(=O)n1Cc1ccc(S(=O)(=O)N(C)C)cc1`, which Potency is on record?
Answer: active: 20.6 µM

Question: With `Cc1ccc(Cl)cc1NS(=O)(=O)c1cc2c3c(c1)CC(=O)N3CCC2` as the molecule, how does the Potency read?
Answer: inconclusive [inhibitor, single point]

Question: For `COCCNC(=O)CSc1nc2ccccc2c(=O)n1CCC(=O)N1CCN(c2ccccc2)CC1`, which “activity change, negative = growth inhibition” value is on record?
Answer: inactive: -18.5%

Question: For `CCOc1ccc(NC(=O)c2ccccc2NS(C)(=O)=O)cc1`, which Potency is on record?
Answer: active: 18.4 µM

Question: For `CC1=C(C(=O)Nc2ccccc2)C(c2ccc(C)o2)n2c(s/c(=C\c3ccco3)c2=O)=N1` (configuration not stated), which Potency is on record?
Answer: inconclusive [inhibitor, single point]

Question: With `FC(F)(F)c1cccc(Nc2ncnc3ccccc23)c1` as the molecule, how does the Potency read?
Answer: active: 18.4 µM

Question: Which Potency does the source give for `Cc1ccc(C)c(Cn2cnc3c(oc4ccccc43)c2=O)c1` here?
Answer: inconclusive [inhibitor, single point]

Question: For `CC1(C)CC2CC(C)(CN2C(=O)c2cccs2)C1` (configuration not stated), which Potency is on record?
Answer: active: 8.2 µM

Question: With `CCC(Sc1nc2nccnc2c(=O)n1Cc1ccc(C)cc1)C(=O)NC1CCCCC1` (configuration not stated) as the molecule, how does the Potency read?
Answer: inconclusive [inhibitor, single point]

Question: Which “activity change, negative = growth inhibition” value does the source give for `C#CCOCCOCCOCCNc1nc(N2CCN(C(=O)Cn3cc(CCO)nn3)CC2)nc(N2CCN(C(=O)Cn3cc(CCO)nn3)CC2)n1` here?
Answer: inactive: 4.25%

Question: For `CCOc1ccc(S(=O)(=O)Nc2ccc(-c3ccc(OC)nn3)cc2)cc1`, which Potency is on record?
Answer: inconclusive [inhibitor, single point]

Question: Which Potency does the source give for `CC(CNC(=O)c1cc(COc2ccc3ncccc3c2)on1)c1ccccc1` (configuration not stated) here?
Answer: active: 11.6 µM

Question: Which Potency does the source give for `CS(=O)(=O)N(CC(=O)N1CCN(c2cccc(Cl)c2)CC1)c1ccccc1` here?
Answer: inconclusive [inhibitor, partial curve, poor fit]

Question: For `O=C(O)CCCC(=O)N1CCC(C(O)(c2ccccc2)c2ccccc2)CC1`, which “activity change, negative = growth inhibition” value is on record?
Answer: inactive: -3.12%

Question: With `CCCc1ccc2oc(C(=O)NCCN3CCCC(O)C3)c(C)c2c1` (configuration not stated) as the molecule, how does the Potency read?
Answer: inconclusive [inhibitor, single point]

Question: With `COc1ccc(-c2c(C)cc3oc(=O)cc(-c4ccccc4)c3c2C)cc1OC` as the molecule, how does the Potency read?
Answer: active: 23.1 µM

Question: With `O=C(NCCc1c[nH]c2ccccc12)C(=O)NCC1OCCN1S(=O)(=O)c1ccccc1` (configuration not stated) as the molecule, how does the Potency read?
Answer: inconclusive [inhibitor, single point]

Question: With `CC1=CS(=O)(=O)CC1Sc1nc(C)n[nH]1` (configuration not stated) as the molecule, how does the “activity change, negative = growth inhibition” value read?
Answer: inactive: -6.92%

Question: With `CN(C)S(=O)(=O)c1cccc(COc2ncnc3c(Cl)cc(Cl)cc23)c1` as the molecule, how does the Potency read?
Answer: inconclusive [inhibitor, single point]

Question: For `Cc1ccc(CNC(=O)Cn2c(=O)n(-c3cccc(Cl)c3)c(=O)c3sc4ccccc4c32)cc1`, which Potency is on record?
Answer: inconclusive [inhibitor, single point]

Question: With `CC(C)c1nc(N2CCN(C(=O)c3ccccc3)CC2)c(C#N)c2c1COC(C)(C)C2` as the molecule, how does the Potency read?
Answer: inconclusive [inhibitor, single point]

Question: For `C=CC(COCc1ccccc1)N(C(=O)OC(C)(C)C)S(=O)(=O)c1ccccc1Br` (configuration not stated), which Potency is on record?
Answer: active: 16.4 µM

Question: Which “activity change, negative = growth inhibition” value does the source give for `O=C(COC(=O)c1ccc(Cl)nc1)NCc1cccs1` here?
Answer: inactive: 2.89%

Question: Which Potency does the source give for `COc1ccc(NC(=O)c2oc3cc(C)c(C)cc3c2C)c(OC)c1` here?
Answer: inconclusive [inhibitor, partial curve, poor fit]

Question: With `O=C(COc1cccc2ccccc12)N1CCN(c2ccccc2)CC1` as the molecule, how does the Potency read?
Answer: inconclusive [inhibitor, partial curve]

Question: For `CC1(C)CC(=O)CC2(C1)NCC(c1ccccc1)c1c2[nH]c2ccccc12` (configuration not stated), which Potency is on record?
Answer: inconclusive [inhibitor, single point]

Question: With `CCc1nc(Nc2cc(OC)ccc2OC)c2oc3ccccc3c2n1` as the molecule, how does the Potency read?
Answer: inconclusive [inhibitor, full curve]

Question: Which Potency does the source give for `O=C(c1ccc(CS(=O)c2ccccc2Cl)o1)N1CCN(c2cccc(Cl)c2)CC1` (configuration not stated) here?
Answer: active: 0.517 µM

Question: With `COc1ccccc1N1CCN(C(=O)COc2ccc(Cl)cc2Br)CC1` as the molecule, how does the Potency read?
Answer: inconclusive [inhibitor, single point]

Question: With `COc1c(-c2ccc(O)c(O)c2)oc2cc(O)cc(O)c2c1=O` as the molecule, how does the Potency read?
Answer: inactive and active: 9.2 µM

Question: Which Potency does the source give for `COc1ccc(C(CNC(=O)c2cccc(N(C)C)c2)N2CCCC2)cc1` (configuration not stated) here?
Answer: inconclusive [inhibitor, single point]

Question: For `CC(CNC(=O)CCCn1c(=O)c2cccn2c2cccnc21)c1ccccc1` (configuration not stated), which Potency is on record?
Answer: inconclusive [inhibitor, single point]

Question: For `Clc1ccccc1-c1nnc(-c2cccnc2)o1`, which Potency is on record?
Answer: inconclusive [inhibitor, single point]

Question: With `COc1cc(C(=O)Nc2cc(C)ccc2C)ccc1OCc1c(C)noc1C` as the molecule, how does the Potency read?
Answer: inconclusive [inhibitor, single point]

Question: With `COc1cc(OC)c(OC)cc1CN1CCOc2ccc(CN3C[C@@H](C)O[C@@H](C)C3)cc2C1` as the molecule, how does the Potency read?
Answer: inconclusive [inhibitor, single point]

Question: With `CCOC(=O)CC(=O)CSc1nc(-c2cccnc2)ccc1C#N` as the molecule, how does the Potency read?
Answer: active: 3.55 µM

Question: For `CC1(C)C(O)C=C[C@@]2(C)C1CC(=O)O[C@@]1(C)C3=CC(=O)OC(c4ccoc4)[C@]3(C)CCC21` (some centres not stated), which Potency is on record?
Answer: inconclusive [inhibitor, single point]

Question: Which “activity change, negative = growth inhibition” value does the source give for `O=C(Cn1nnc(-c2ccccc2-n2cnnn2)n1)c1ccccc1` here?
Answer: inactive: -18.3%

Question: For `C/C(=N/NC(=O)c1ccco1)c1cccc(NC(=O)c2ccc(C)s2)c1`, which Potency is on record?
Answer: inconclusive [inhibitor, single point]

Question: For `O=C(NCCO)C1CCN(C(=O)c2ccc(-c3ccccc3)cc2)CC1`, which “activity change, negative = growth inhibition” value is on record?
Answer: inactive: -15.5%

Question: For `CCCCCCN1C[C@@H](n2cc(-c3ccc(F)cc3)nn2)[C@H](O)C[C@@H]1c1ccccc1`, which Potency is on record?
Answer: active: 13 µM

Question: Which Potency does the source give for `COc1ccc(OC)c2[nH]c(=O)c(CCNC(=O)c3ccc4c(c3)OCO4)cc12` here?
Answer: inconclusive [inhibitor, single point]

Question: Which Potency does the source give for `O=C(Nc1ccc(C(=O)Oc2ccccc2)c(O)c1)c1ccco1` here?
Answer: inconclusive [inhibitor, partial curve]

Question: For `O=C(Nc1ccccc1F)c1ccc(C(=O)c2ccccc2)cc1`, which “activity change, negative = growth inhibition” value is on record?
Answer: inactive: -25.4%

Question: With `CCOc1cccc2sc(N(CCN(CC)CC)C(=O)c3ccco3)nc12` as the molecule, how does the Potency read?
Answer: inconclusive [inhibitor, single point]

Question: Which Potency does the source give for `Nc1nc(NCCc2ccc(O)cc2)nc2nc(-c3ccco3)nn12` here?
Answer: active: 11.6 µM

Question: With `O=C(Nc1ccccc1)N1CCN(S(=O)(=O)c2ccccc2)CC1` as the molecule, how does the “activity change, negative = growth inhibition” value read?
Answer: inactive: 2.15%

Question: With `CCCCCCCCCCCC(=O)N(CCO)CCO` as the molecule, how does the Potency read?
Answer: inconclusive [inhibitor, single point]

Question: Which Potency does the source give for `Cc1ccc(-n2[nH]c(C)c(/C=N/N3C(=O)c4cccc5cccc(c45)C3=O)c2=O)cc1` here?
Answer: inconclusive [inhibitor, single point]

Question: With `Cc1c(Cl)cccc1NC(=O)C1COc2ccccc2O1` (configuration not stated) as the molecule, how does the “activity change, negative = growth inhibition” value read?
Answer: inactive: 7.65%

Question: Which Potency does the source give for `COc1cc(NC(=O)c2ccc(NC(=O)N3CCSc4ncccc43)cc2)cc(OC)c1` here?
Answer: active: 13 µM

Question: Which Potency does the source give for `COc1ccc(CCNC(=O)c2ccc(CNS(=O)(=O)c3ccccc3)cc2)cc1OC` here?
Answer: active: 18.4 µM and active: 16.4 µM

Question: With `COc1cc(C)ccc1OCCOCCOc1cccc2ccc(C)nc12` as the molecule, how does the Potency read?
Answer: active: 16.4 µM

Question: Which Potency does the source give for `CCc1ccccc1N(C(=O)c1snc(C(N)=O)c1N)C(C(=O)NCC1CCCO1)c1ccc(N(C)C)cc1` (configuration not stated) here?
Answer: inconclusive [inhibitor, single point]

Question: With `COCCn1nnnc1C(c1ccc(OC)cc1)N1CCN(C(=O)c2ccco2)CC1` (configuration not stated) as the molecule, how does the “activity change, negative = growth inhibition” value read?
Answer: inactive: -4.57%

Question: Which Potency does the source give for `CCOC(=O)c1ccc(S(=O)(=O)N2CC(=O)Nc3ccccc32)cc1` here?
Answer: active: 18.4 µM

Question: For `CC(C)Oc1ccc(S(=O)(=O)N2CCOCC2)cc1NC(=O)CSC(=S)N1CCCC1`, which Potency is on record?
Answer: active: 20.6 µM

Question: Which Potency does the source give for `O=C(CSc1cn(CC(=O)N2CCCC2)c2ccccc12)Nc1cc(C(F)(F)F)ccc1Cl` here?
Answer: inconclusive [inhibitor, full curve, poor fit]

Question: Which “activity change, negative = growth inhibition” value does the source give for `N#CC(C#N)=C1NC2(CCCCC2)Cc2ccccc21` here?
Answer: inactive: -0.0507%

Question: For `C=CCn1c(SCC(=O)NCc2cccs2)nnc1C1CCCCC1`, which Potency is on record?
Answer: inconclusive [inhibitor, single point]

Reference: PubChem BioAssay AID686978 (National Center for Advancing Translational Sciences (NCATS), 2013)
